Laboratory results published in PubChem BioAssay (NCATS).
The other results are listed elsewhere or left out. Shown are side measurements of this screen, not its main read-out; they come without a call. Most of these compounds were active or inconclusive in the main read-out, so they are no random draw. The note in brackets gives the kind of curve behind each potency; many fits are weak.

Experiment: qHTS Assay for Lipid Storage Modulators (AID 1519)
Conditions: Drosophila S3 cells, BODIPY lipid droplet/cell ratio, laser cytometry; measured here: cell number channel AC50; cells loaded with oleic acid
How it was run: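 Cells seeded at 5,000 per well were treated with compounds over a concentration series and loaded with oleic acid (400 uM, as added). Lipid droplet fluorescence (488 nm excitation, 500-530 nm channel) was read by laser-scanning cytometry and normalized to 20 uM Triacsin C.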
Tags give direction and shape of the fitted curve.

Row | SMILES | AC50
1 | CN(C)c1ncc2nc(-c3ccc(Cl)cc3)c(=O)n(Cc3cccs3)c2n1 | 3.16 µM [rising, single point]
2 | FC(F)(F)c1ccccc1-c1cncnc1NCc1cccnc1 | 0.501 µM [rising, full curve]
3 | COc1cccc(-c2nccc(NCc3ccccc3OC)n2)c1 | 1.78 µM [rising, partial curve, poor fit]
4 | CC(C)=CCc1c2c(c3occ(-c4ccc(O)c(O)c4)c(=O)c3c1O)C=CC(C)(C)O2 | 39.8 µM [falling, single point]
5 | CC(C)=CCCC(C)CCO (stereo unspecified) | 39.8 µM [rising, single point]
6 | O=C(c1cccc(F)c1)N1CCC2(CCCN(Cc3cc(C(F)(F)F)cc(C(F)(F)F)c3)C2)CC1 | 2.51 µM [rising, partial curve, poor fit]
7 | CN(C)c1ncc2nc(CCc3ccccc3)c(=O)n(Cc3ccc(F)cc3)c2n1 | 0.794 µM [rising, partial curve, poor fit]
8 | CC(=O)NCCNc1ccnc(-c2ccccc2C)n1 | 1.78 µM [rising, full curve, poor fit]
9 | CCNc1ncc2nc(-c3ccc(OC)cc3)c(=O)n(CCc3ccccc3)c2n1 | 0.0891 µM [rising, full curve]
10 | O=C(NC1CCN(Cc2ccccc2)CC1)c1ccc(I)cc1 | 14.1 µM [rising, partial curve]
11 | O=S(=O)(c1ccccc1)N1CCC[C@@]2(CCN(c3cccc(-c4ccccc4)c3)C2)C1 | 0.0355 µM [rising, full curve]
